Screen size: about 150,000 compounds; about 540 (0.36%) showed an effect of 50% or more. The list shows a part of the results.
test system: Plasmodium falciparum; assay: Primary screen in NF54 nanoGlo assay, in single point, at 2uM, 72h; a lower Z score goes with more inhibition; type: functional, Erythrocyte; conditions: timepoint 72 hour

SMILES	% Inhibition [%]	Z score
Nc1c2c(-c3cccc(Cl)c3)nc(NCc3ccccn3)nc2nn1-c1cccc(F)c1	-9	1.1
Cc1n[nH]c(C)c1-c1ccc(NCCO)nn1	5	-0.8
CCCc1nc(C)sc1C(=O)Nc1ccc(OC)nc1	2	-0.3
N#Cc1ncn(C[C@H]2CCC3(CCCCC3)O2)c1C#N	-10	1.82
Cc1noc(C)c1S(=O)(=O)N1CCCCCCC1	-5	0.7
O=C(Nc1nnc(C2CC2)s1)c1ccc(S(=O)(=O)N2CCCC2)cc1	-4	0.48
Cc1cc(C)nc(C2CN(C(=O)c3cc(Cl)cc(F)c3N)C2)n1	-14	2.19
Cc1cc(C2CCN(c3cc(C#N)c(Br)cn3)CC2)[nH]n1	14	-1.61
O=C(O)C1CCCN1C1CCN(Cc2ccccc2)C1 (configuration not stated)	-17	3.32
COc1ccc2c(c1)CN(C(=O)[C@]1(O)CCOC1)CC2	-12	1.34
Nc1c(-c2ccncc2)nsc1C(=O)NCc1ccccc1F	-14	1.38
CCCS(=O)(=O)CCN1CCCC[C@H]1c1ncc[nH]1	1	-0.12
CN(C)[C@@H]1CO[C@H](CNC(=O)c2ccc(F)cc2)[C@H]1O	11	-1.28
O=C(N/C(=N/c1ccccc1)N1CCN(Cc2cccc(F)c2)CC1)c1ccc(Br)cc1	-1	0.26
O=C(c1ccc2cc[nH]c2c1)N1CCC2(CC1)C[C@@H](Cc1ccc(F)cc1)CCO2	9	-0.97
O=C(CCn1cccn1)Nc1cnc(-c2ccccc2)s1	-7	1.22
COc1ccc(CC(=O)NCC2(C)CCOCC2)cc1	-6	0.97
CCN(CC)c1cc(N2Cc3cnc(-c4ccccc4)nc3C2)nc(N)n1	-2	0.29
COC(=O)c1ccc2nn(CCc3c(C)noc3C)c(=O)n2c1	-11	1.07

SMILES	% Inhibition [%]	Z score
Cc1cc(N2CCC[C@@]3(CCC(=O)N(CCCO)C3)C2)nc(N(C)C)n1	-12	1.63
O=C(c1cccc(S(=O)(=O)N2CCCC2)c1)N(c1ccc(Cl)cc1)c1nc2ccccc2s1	-7	1.03
CN(Cc1ccccc1)S(=O)(=O)N1C[C@@H]2NCCO[C@H]2C1	-8	0.98
COc1ccc(CN2CCN(c3ccncc3C)CC2)cc1Cn1cccn1	-15	1.41
COc1ccc(C=C(c2nnnn2-c2ccc(C)cc2)c2nnnn2-c2ccc(C)cc2)cc1OC	-9	1.8
O=C(CC1CCCCC1)Nc1nc(C2CC2)cs1	-7	1
COc1ccc2nc(CN3CCC[C@H](OC)C3)sc2c1	17	-2.46
CCN(CC)C(=O)Cn1cccc1-c1nc(-c2ccc(OC)c(OC)c2)no1	7	-1.05
COCCN1CC[C@@]2(CCC1=O)CN(C(=O)c1ccc(C)s1)CCN2C	-3	0.39
Cn1ncc(CNC[C@H](O)c2ccc(Br)cc2)n1	-6	1.26
CC(=O)NCCCNC(=O)Cc1ccc(Cl)cc1Br	2	-0.22
O=C([C@@H]1CCCO1)N1CCN(c2nccs2)CC1	-6	1.01
OCc1ccc(-c2c(-c3ccccc3)ncn2CCc2cn[nH]c2)o1	-6	0.97
O=C(c1ccc2c(c1)CCCN2)N1CCC[C@@H]2OCC[C@@H]21	-3	0.53
CC[C@H](CO)NC(=O)Nc1snnc1-c1ccccc1	-14	1.53
O=c1[nH]nc(-c2nc(-c3cnccn3)no2)c2ccccc12	-9	1.44
O=C(NCc1ccc(F)cc1)c1cnn2c1OCCC2	-11	1.36
COCc1nc(-c2ccncc2)nn1CC(F)(F)F	1	-0.23
Cn1c(Cn2cccn2)nnc1[C@H]1CCCN(c2nc(CO)cs2)C1	1	-0.08

SMILES	% Inhibition [%]	Z score
CC1(C(=O)N2CC3(CC3)C2)CCCCCC1	-4	0.63
CC[C@H](OC)c1nc(C2(N)CCC2)no1	2	-0.28
Cc1nc(CN(C)C(=O)Nc2cc(-c3ncco3)ccc2C)no1	-3	0.37
c1cc2c(cc1CN1CCCCCC1)OCO2	1	-0.13
O=C(Nc1ccc(-c2onc3c2CCCC3)cc1)c1c(Cl)cc(Cl)cc1Cl	-2	0.3
O=C1N(c2ccc(F)cc2)Cc2nc(=O)n(C3CCCC3)n21	35	-3.95
C[C@H]1CN(CCc2ccc(S(N)(=O)=O)cc2)CC(C)(C)O1	-5	0.71
COc1ccc(-c2cc(C(=O)NCCc3ccccn3)[nH]n2)cc1OC	-5	0.68
Cc1ccc(CC2CCN(C(=O)c3ccc4c(c3)NC(=O)CNC4=O)CC2)cc1C	-4	0.46
Cc1nn(C)cc1CNC(=O)c1ccc2c(c1)OCO2	0	-0.07
COc1ccc2nc(C)c(C(=O)N3CC(C(F)(F)F)C3)n2n1	-9	1.32
C[C@@H](C(=O)NCCn1cnc2c(N)ncnc21)c1ccccc1	20	-2.53
Oc1cccc(C2Nc3ccc(Br)cc3[C@H]3OCC[C@@H]23)c1 (some centres not stated)	-1	0.14
CN1CCC2(CCN(C(=O)NCc3cc(C4CC4)ccc3F)CC2)C1=O	-6	0.82
CN(Cc1ccc2c(c1)OCCO2)c1nc(N)nc(C(C)(C)C)n1	6	-1.11
O=C([C@H]1CC12CCC2)N1CCC(Oc2ccccc2)(C(=O)O)CC1	-4	0.66
CC[C@H](NCc1nncn1C)c1ccc2c(c1)CC(C)(C)O2	-13	1.71
O=C(NC1CCCC1)c1sccc1S(=O)(=O)N1CCOCC1	-45	5.29

Source: ChEMBL document CHEMBL4888484, “Replenishing the malaria drug discovery pipeline: Screening and hit evaluation of the MMV Hit Generation Library 1 (HGL1) against asexual blood stage Plasmodium falciparum ,using a nano luciferase reporter read-out” (2022)
